A number of entries come with more than one value. This list holds those alone. The source may hold further records. The records of an entry are repeated measurements (runs, samples, wells, individuals or studies). A tag in brackets gives the origin of a value. The letters are not those of the source and start again with each entry.
Test system: CEM cells HIV-1 protection, formazan growth assay
Experiment: NCI AIDS Antiviral Assay
Details: for IC50: measured here: growth of uninfected CEM cells
In short: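 Five concentrations of each compound were applied to infected and uninfected human CEM cells. Protection from HIV-1 was judged from growth measured with a soluble formazan assay.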

| SMILES | IC50 | EC50 |
| --- | --- | --- |
| Nc1ncnc2c(C3OC(CO)C(O)C3O)nsc12 (centres undefined) | 2.51 nM [sample A] and 16.2 µM [sample B] | – |
| O=C(NNC(=S)NC1OC(CO)C(O)C(O)C1O)c1cccc(C(=O)NNC(=S)NC2OC(CO)C(O)C(O)C2O)n1 (centres undefined) | – | 16.2 µM [sample A] and > 200 µM [sample B] |
| O=[N+]([O-])c1ccc2[nH]c(=S)[nH]c(=S)c2c1 | > 200 µM [sample A] and 9.33 µM [sample B] | – |
| Fc1cccc(F)c1C1SCc2nc3ccccc3n21 (centres undefined) | – | 3.09 µM [sample A] and 7.24 µM [sample B] and 363 nM [sample C] |

Source: PubChem BioAssay AID179 (DTP/NCI, 2004)
